86 sequences from the supplement of paper PMC3334620 can be followed below.

Over roughly 33,000 sequences, “E-score (-0.5 to 0.5)” has its median near -0.012; the highest 2% begin near 0.29. The list shows a part of the results.

The test has as its target T1, Ybr033w (UniProt P38073).
T1 sequence: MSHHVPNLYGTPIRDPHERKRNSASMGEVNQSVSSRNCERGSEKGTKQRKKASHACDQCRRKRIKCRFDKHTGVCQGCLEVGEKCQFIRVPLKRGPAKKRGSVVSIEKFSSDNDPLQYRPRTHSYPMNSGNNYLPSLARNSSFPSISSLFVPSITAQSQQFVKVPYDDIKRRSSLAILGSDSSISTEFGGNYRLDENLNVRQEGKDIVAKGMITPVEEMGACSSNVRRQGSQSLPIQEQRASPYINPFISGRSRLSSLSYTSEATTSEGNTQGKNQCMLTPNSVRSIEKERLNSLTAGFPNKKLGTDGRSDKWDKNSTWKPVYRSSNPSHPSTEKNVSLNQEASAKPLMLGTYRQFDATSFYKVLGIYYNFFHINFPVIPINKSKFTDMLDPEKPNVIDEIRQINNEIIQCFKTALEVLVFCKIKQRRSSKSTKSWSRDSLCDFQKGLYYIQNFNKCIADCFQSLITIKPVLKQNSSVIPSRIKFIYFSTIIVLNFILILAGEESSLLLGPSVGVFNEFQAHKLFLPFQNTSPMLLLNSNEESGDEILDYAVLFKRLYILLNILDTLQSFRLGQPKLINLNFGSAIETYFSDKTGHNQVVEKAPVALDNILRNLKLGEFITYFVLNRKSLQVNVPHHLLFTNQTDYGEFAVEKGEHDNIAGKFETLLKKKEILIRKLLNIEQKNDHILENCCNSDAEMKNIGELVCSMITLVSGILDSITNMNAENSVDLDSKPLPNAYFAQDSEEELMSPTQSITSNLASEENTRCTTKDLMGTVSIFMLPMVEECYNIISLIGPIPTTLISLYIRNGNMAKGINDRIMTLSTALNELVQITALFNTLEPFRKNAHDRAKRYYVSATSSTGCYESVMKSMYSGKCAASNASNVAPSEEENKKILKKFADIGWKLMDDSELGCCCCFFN
In words: PBM E-score (8-mer binding enrichment) (E-score (-0.5 to 0.5)); higher = stronger / more preferred TF binding; most listed sequences are background and not binding sites. Conditions: protein concentration: 200 nM; construct: GST-full length. The method in brief: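 The E-score, a modified Wilcoxon-Mann-Whitney statistic, was computed by the Universal PBM Analysis Suite for every ungapped eight-base word pooled with its reverse complement. Scans behind it were normalised with masliner after bound GST-tagged yeast transcription factors were detected with fluorescent anti-GST. The proteins, at about 100-200 nM, had been applied to universal all-10-mer Agilent arrays made double-stranded by primer extension.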
In the case of ATAGCTCG, the “PBM E-score” value is -0.106.
As to ACGACACA, the “PBM E-score” value was 0.0592.
Take CTACCAGA: the “PBM E-score” value stood at 0.0212.
For TGTAATAA, the “PBM E-score” value turned out to be 0.297.
With CGCGTTCC, the “PBM E-score” value is -0.227.
The value for ATTCGACC was -0.285; that for AACCTGTC was -0.181; that for CTGATGAA was 0.119.
Regarding ATGCGTAC, the “PBM E-score” value came to 0.111.
Turning to TCACAAGA, the “PBM E-score” value is -0.0328.
Consider CGCCGAAC, for which the “PBM E-score” value is -0.00384.
Take GTTTGCGA: the “PBM E-score” value worked out at 0.0654.
The value for CGCAGCCA was -0.0917.
The value for CGGCAGAA was -0.149.
As to GGTCACGA, the “PBM E-score” value is -0.0573.
For the sequence TGGAACCA, the “PBM E-score” value turned out to be 0.0554.
For ATAACCGA, the “PBM E-score” value was -0.0613.
In the case of CAAGGTGA, the “PBM E-score” value was -0.103.
The value for ATATGTCA was 0.118; that for GCAGTGCC was -0.186; that for AGATTCCT was 0.036.
The value for GCCTATAC was -0.128; that for CAGCGAGG was -0.138; that for AAACGATT was 0.053.
In the case of GCATCTGA, the “PBM E-score” value was -0.195.
As to CAAGTAAG, the “PBM E-score” value was determined as 0.137.
The same measure for ACGAACCA: 0.204; for CCATTTGC: 0.0186; for AACGTAGG: -0.201.
Take AACACGTA: the “PBM E-score” value amounted to 0.0645.
The value for GACCGTCC was -0.223.
The value for CAAAGCTC was -0.212; that for GAGTAGAC was -0.0114.
On to CCAAACAG, for which the “PBM E-score” value is -0.228.
Consider AGTGACAT, for which the “PBM E-score” value is 0.056.
The value for GCCAGGAA was 0.00279.
The value for GAGCGCTA was -0.0339.
The same measure for AATTCATA: 0.235; for CCAGTTAA: 0.192.
CCATAGAC: the “PBM E-score” value is -0.107.
In the case of GTTATCCA, the “PBM E-score” value was 0.0783.
For the sequence ACTCTGCC, the “PBM E-score” value is -0.0696.
For CTGTTTAC, the “PBM E-score” value is 0.163.
The same measure for CTCCTAAC: -0.128; for ACCGAGAA: 0.132; for CCCATTAA: -0.0404.
For the sequence CCACGCGG, the “PBM E-score” value was -0.291.
On to GAGTGGGA, for which the “PBM E-score” value is -0.12.
Turning to CATGGAAA, the “PBM E-score” value amounted to 0.202.
The same measure for ACAGCAGG: -0.0354.
The value for AATCATCA was 0.17; that for ATGACGGA was 0.0551.
The same measure for GAAGCATA: -0.0562; for GCTATTTA: 0.132.
On to ACGCACTG, for which the “PBM E-score” value was -0.124.
Regarding AAAAGACA, the “PBM E-score” value worked out at 0.292.
The same measure for ACAATCAT: 0.114.
Consider AGTGAATG, for which the “PBM E-score” value is 0.166.
The same measure for ATGTCTTG: 0.168.
The same measure for AAGCGAAG: -0.0636; for TACGATCA: 0.148; for GCGCAAGA: 0.0606.
Regarding ATAGCGCA, the “PBM E-score” value stood at 0.0412.
In the case of CGTGTATA, the “PBM E-score” value turned out to be 0.179.
For the sequence CCATGGCC, the “PBM E-score” value is -0.295.
Consider CATCCAGC, for which the “PBM E-score” value was -0.0524.
For the sequence GGCGGAAC, the “PBM E-score” value is 0.136.
The same measure for AGGCGTCC: -0.168.
The same measure for GAGCTAGA: -0.345; for AACAAAAG: 0.116.
The same measure for CCCTGAAC: 0.114.
Consider GACTCTTA, for which the “PBM E-score” value amounted to 0.0544.
The same measure for CTCTGAGA: -0.195.
On to AAGCCCAT, for which the “PBM E-score” value was -0.0465.
Consider AACATCAT, for which the “PBM E-score” value was 0.215.
Consider AAGGCCAA, for which the “PBM E-score” value was -0.179.
For the sequence AGACCTAT, the “PBM E-score” value was found to be 0.102.
Take CCTATTGA: the “PBM E-score” value is 0.0384.
As to GATGAGAC, the “PBM E-score” value was 0.00284.
The value for CTTACTAA was 0.143; that for CGCGAAAG was 0.0236.
On to CGGGTCAG, for which the “PBM E-score” value is -0.0811.
The same measure for GCTCACCC: -0.227; for CTGCCTTC: -0.0378.
The value for ATTGCCCA was -0.00783.
For the sequence CTGAGAAG, the “PBM E-score” value is -0.0783.
